One data set has as its system 3LL. Kind of data set: cell viability relative to siNT1 control; higher = less toxic. The conditions noted are these: concentration: 10 nM; 96 h; Mus musculus.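 Further: Luminescence-based viability of cells reverse transfected in 384-well plates with lipid-complexed siRNAs built on a non-toxic 19mer backbone whose passenger strand carries 2′-O-methyl groups at positions 1 and 2, triplicates.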
The test system of another data set is H460. Kind of data set: cell viability relative to lipid-only control; HeyA8 human ovarian and H460 human lung cancer; M565 mouse liver and 3LL mouse lung cancer; siNT1 is a non-toxic control siRNA; higher = less toxic. The settings on record: concentration: 10 nM; 96 h; Homo sapiens. The method, then:
(§1)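 Arrayed screen of 4096 siRNA duplexes, each carrying one of all possible 6mer seeds at guide-strand positions 2-7 in a fixed neutral 19mer scaffold (constant flanks: U at position 1, then ACAUGUAAACCA, plus a 3' AA overhang). The passenger strand is 2'-O-methylated at positions 1-2 so only the guide strand loads into RISC. Duplexes were reverse-transfected at 10 nM with RNAiMAX in triplicate in 384-well plates; viability was read by CellTiter-Glo ATP content 96 h after transfection. Values are % viability normalised to lipid-only wells (HeyA8, H460, M565) or to siNT1 (3LL).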

The test system of another data set is HeyA8. The description is as above. The conditions noted are these: concentration: 10 nM; 96 h; Homo sapiens. The procedure: as §1
The test system of the next data set is M565. The data set is described as above. The conditions noted are these: concentration: 10 nM; 96 h; Mus musculus. The method, then: as §1

± gives the uncertainty stated by the source. Shown are siRNA guide strands that differ only in the seed, positions 2 to 7.
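Wherever cell viability relative to lipid-only control is given: reverse lipid transfection in 384-well plates, in triplicate, of duplexes on a non-toxic 19mer backbone with passenger strand 2′-O-methylated at positions 1 and 2, luminescence viability read-out.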

A word on the cell viability: it is a read-out of living cells in per cent, often relative to untreated cells. In the case of UUUUAGUACAUGUAAACCAAA, the cell viability in the data set with 3LL amounted to 100 ± 6.5%; in the data set with H460 it was 81.1 ± 16%; in the data set with HeyA8 it was 74.8 ± 7.4%; with M565, 106 ± 14%.

Turning to UUGGACAACAUGUAAACCAAA, the cell viability with 3LL is 52 ± 4.9%; with H460 it was 61.3 ± 2.7%; in the data set on HeyA8, 66.8 ± 2.1%; in the data set with M565, 33.6 ± 2.3%.

Consider UGGUUUGACAUGUAAACCAAA, for which the cell viability in the data set on 3LL was 90.3 ± 9.7%; with H460, 87 ± 28%; in the data set on HeyA8 it was 78 ± 6.9%; in the data set on M565 it was 69.5 ± 8.6%.

In the case of UCUCUACACAUGUAAACCAAA, the cell viability in the data set on 3LL is 95.2 ± 12%; with H460, 40.3 ± 4.9%; in the data set with HeyA8, 69.2 ± 4.5%; in the data set with M565, 50 ± 5.9%.

UUACGGGACAUGUAAACCAAA: the cell viability is 59.2 ± 13% in the data set on 3LL, 58.3 ± 4.9% in the data set on H460, 21.7 ± 1.7% with HeyA8 and 61.5 ± 9.8% with M565.

On to UUGCAGGACAUGUAAACCAAA, for which the cell viability in the data set on 3LL turned out to be 30.8 ± 6.3%; with H460 it was 11.9 ± 1.1%; with HeyA8, 18.4 ± 0.9%; in the data set with M565, 43.8 ± 8.8%.

Take UUACAGCACAUGUAAACCAAA: the cell viability in the data set with 3LL came to 22.1 ± 9%; with H460, 63.9 ± 7.9%; in the data set with HeyA8, 71.6 ± 5.3%; with M565 it was 34.5 ± 7.1%.

UGUGGCGACAUGUAAACCAAA: the cell viability came to 42.2 ± 6.3% in the data set on 3LL, 31 ± 3.3% with H460, 55.7 ± 8.1% in the data set on HeyA8 and 70.7 ± 21% in the data set with M565.

With UCAUUCAACAUGUAAACCAAA, the cell viability with 3LL was 91.6 ± 13%; in the data set with H460 it was 62 ± 0.91%; in the data set with HeyA8, 70.8 ± 2.1%; in the data set with M565, 58.8 ± 23%.

On to UUAUUGAACAUGUAAACCAAA, for which the cell viability with 3LL was found to be 42.7 ± 6.3%; in the data set with H460, 69.1 ± 9.3%; in the data set on HeyA8, 71.2 ± 6.2%; in the data set with M565 it was 57.3 ± 13%.

Regarding UUAGCAAACAUGUAAACCAAA, the cell viability in the data set on 3LL worked out at 88.2 ± 16%; in the data set on H460 it was 80.6 ± 11%; in the data set with HeyA8, 87 ± 4.9%; in the data set on M565, 71.1 ± 16%.

Regarding UACUUAGACAUGUAAACCAAA, the cell viability with 3LL came to 99.9 ± 6.8%; with H460, 74.1 ± 16%; with HeyA8, 81.2 ± 5.7%; with M565, 53.1 ± 14%.

Consider UAGGUUUACAUGUAAACCAAA, for which the cell viability in the data set on 3LL stood at 87 ± 10%; in the data set on H460, 78.8 ± 15%; with HeyA8 it was 86.4 ± 5.8%; in the data set with M565, 68.9 ± 7.1%.

UGGGCGAACAUGUAAACCAAA: the cell viability with 3LL turned out to be 48.1 ± 9.6%; in the data set on H460, 9.45 ± 2.8%; with HeyA8 it was 1.47 ± 0.055%; in the data set with M565, 29.8 ± 2.7%.

Consider UAGUAUUACAUGUAAACCAAA, for which the cell viability is 85 ± 2.5% in the data set with 3LL, 46.7 ± 5.7% with H460, 38.2 ± 4.3% with HeyA8 and 63.8 ± 10% in the data set with M565.

Regarding UAACUGCACAUGUAAACCAAA, the cell viability amounted to 11.3 ± 1.9% with 3LL, 48.1 ± 8.8% with H460, 11.9 ± 2.1% in the data set on HeyA8 and 8.56 ± 0.92% in the data set on M565.

Turning to UAAAAGGACAUGUAAACCAAA, the cell viability amounted to 109 ± 20% in the data set on 3LL, 70.5 ± 3.2% in the data set with H460, 85.4 ± 6.9% with HeyA8 and 64.8 ± 21% in the data set on M565.

For UCAUAUGACAUGUAAACCAAA, the cell viability with 3LL amounted to 99.4 ± 15%; with H460 it was 53.2 ± 8.9%; in the data set on HeyA8, 83 ± 5.3%; with M565, 74.7 ± 11%.

Regarding UAAUAGCACAUGUAAACCAAA, the cell viability in the data set on 3LL was 26 ± 2.9%; in the data set on H460, 29.7 ± 1.2%; in the data set with HeyA8 it was 38.2 ± 3.8%; in the data set on M565 it was 12.4 ± 1.9%.

Take UGGGCUCACAUGUAAACCAAA: the cell viability in the data set on 3LL was found to be 16.1 ± 1.6%; in the data set on H460, 24.9 ± 3.1%; in the data set on HeyA8, 5.52 ± 0.71%; in the data set with M565 it was 16.7 ± 6.5%.

As to UUCCCAAACAUGUAAACCAAA, the cell viability with 3LL was 83.7 ± 19%; in the data set on H460, 97.6 ± 10%; with HeyA8, 79.6 ± 14%; in the data set on M565, 66.9 ± 13%.

On to UGAGGAUACAUGUAAACCAAA, for which the cell viability in the data set with 3LL was determined as 48.6 ± 9.1%; in the data set on H460 it was 31 ± 2.4%; in the data set on HeyA8, 23.2 ± 2.8%; in the data set with M565 it was 21.7 ± 5%.

Turning to UCCGCGCACAUGUAAACCAAA, the cell viability with 3LL stood at 87.5 ± 6.9%; in the data set with H460 it was 55.7 ± 8.2%; in the data set on HeyA8 it was 59.3 ± 5.8%; in the data set on M565, 35.1 ± 12%.

For UGCAUCGACAUGUAAACCAAA, the cell viability came out at 91.9 ± 13% in the data set on 3LL, 63 ± 7.3% in the data set with H460, 62.9 ± 4% in the data set on HeyA8 and 81.7 ± 6.8% in the data set on M565.

For the sequence UUGCCCGACAUGUAAACCAAA, the cell viability was 43.5 ± 6.2% with 3LL, 76.4 ± 5.8% in the data set with H460, 96 ± 5.7% in the data set on HeyA8 and 49.4 ± 7.4% with M565.

On to UUGAAGCACAUGUAAACCAAA, for which the cell viability in the data set with 3LL turned out to be 5.72 ± 3.2%; with H460, 33.3 ± 2.9%; in the data set with HeyA8, 36.9 ± 3.1%; with M565, 22.6 ± 3.7%.

As for UAGUCCUACAUGUAAACCAAA, the cell viability with 3LL turned out to be 24.8 ± 2.3%; in the data set with H460, 48.6 ± 9%; in the data set with HeyA8, 11.8 ± 2.4%; with M565, 20.4 ± 2.8%.

With UAAGCUAACAUGUAAACCAAA, the cell viability worked out at 82.3 ± 7.8% in the data set with 3LL, 93.3 ± 28% in the data set on H460, 88.2 ± 4% with HeyA8 and 67.3 ± 6.9% with M565.

On to UAAUGGCACAUGUAAACCAAA, for which the cell viability with 3LL came to 15.6 ± 1.8%; in the data set on H460, 62.6 ± 8.1%; in the data set on HeyA8, 38.5 ± 3.5%; with M565 it was 9.8 ± 6.3%.

For the origin of these results see the supplement of paper PMC6206098.
